# Assay results published in the supplement of paper PMC10338343.
# ± gives the standard deviation. Whole data set: some 3,700 sequences, median “pre-steady-state target cleavage rate” near 0.02, cut for the highest 2% near 0.23. The list shows a part of the results, in another mix than the full data.
# Test system: MILI (PIWIL2) piRISC loaded with Kctd7 piRNA (26 nt)
# Test: pre-steady-state target cleavage rate (min^-1); MIWI and MILI are mouse PIWI proteins and EfPiwi is from a freshwater sponge; tags in brackets are library labels; higher = faster piRNA-guided slicing of the target
# Conditions: guide: Kctd7 piRNA 5'p-UGUUAAUCUCUCAGAGAAGGUGACAG; auxiliary factor: 500 nM mouse GTSF1
# How it was run: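 Three pooled Cleave-'n-Seq trials supplied the data, with k3 capped at 0.0001 min^-1. In each, […] transcribed, DNA-blocked target RNA library and 1 nM active affinity-purified piRISC with one synthetic guide reacted in HEPES–potassium acetate buffer at 33 °C for 0–8 or 0–960 min, with or without 500 nM GTSF1 partner protein. Uncleaved targets were sequenced and normalised to depth and to weakly complementary targets. A burst-and-steady-state fit provided the pre-steady-state cleavage rate.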
# 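Also: 1 nM active piRISC with 0.1 nM target library at 33 °C single turnover.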
row,Sequence,pre-steady-state target cleavage rate
1,UAGUCAGUCACCUUCUGUGAGAGAUUAACA,0.187 ± 0.011
2,UAGUGUGUCACCUUCUCUGAGAGAUUACA,0.122 ± 0.036
3,UAGUGACAGACCUUCUCGAGAGAUUAACA,0.0146 ± 0.0074
4,UAGUGACUCACCUUGUCAGAGAGAUUAACA,0.038 ± 0.0074
5,UAGUCUGUCACCUCUCUGAGAGAUUAACA,0.208 ± 0.018
6,UAGUGAGUCACCUUGUCUGAGAGAUUAAGA,0.00881 ± 0.0052
7,UAGUGACAGACCUUGUCUGUGAGAUUAACA,0.0175 ± 0.0053
8,UAGUGUGUCAUCUUCUCUGAGAGAUUAACA,0.218 ± 0.019
9,UAGUGACAGUCAUUCUCUGAGAGAUUAACA,0.00865 ± 0.0029
10,UAGUGACAGUCCUUCUGUGAGAGAUUAACA,0.0294 ± 0.0049
11,UAGUGUGUCACCUUCUCUGAGAGGAUUAACA,0.15 ± 0.02
12,UAGUCUUGUCACCUUCUCUGAGAGAUUAACA,0.341 ± 0.058
13,UAGUGACACACCUUCUCUGAGAGAAUAACA,0.115 ± 0.025
14,UAGUGUGUGACCUUCUCUGAGAGAUUUACA,0.0991 ± 0.02
15,UAGUGAGUCACCUUCUCUCAGAGAUUAUCA,0.0215 ± 0.0076
16,UAGUCUGUCACCUUCUGUGAGAGAAUAACA,0.0497 ± 0.011
17,UAGUGACAGACCUACUCUGAGAGAUUAACA,0.0514 ± 0.0077
18,UAGUGACAGUCCUUCUCUGAGAGAUUAAGA,0.0116 ± 0.0043
19,UAGUGACUCACCUUCUCUAAGAGAUUAACA,0.12 ± 0.0099
20,UAGUGACACACCUUCUCUGUGACAUUAACA,0.0382 ± 0.012
21,UAGUGACUCACCUUCAGUGAGAGAUUAUGA,0.0132 ± 0.0042
22,UAGUCUGUGACCUUCUCUGAGACAUUAACA,0.0192 ± 0.0031
23,UAGUCUGUCACCAUCUCUGAGAGAUUAACA,0.173 ± 0.011

row,Sequence,pre-steady-state target cleavage rate
1,UAGUGACAGACCAUUCUCUGAGAGAUUAACA,0.0891 ± 0.012
2,UAGUGACACACCUUCUCUGAGAGAUUAAACA,0.197 ± 0.03
3,UAGUGAGUCACGUUCUCAGAGAGAUUAACA,0.0819 ± 0.0088
4,UAGUGACACACCGUUCUCUGAGAGAUUAACA,0.0968 ± 0.0086
5,UAGUCUGACACCUUCUCUGAGAGAUUAAGA,0.0746 ± 0.011
6,UAGUGACUCACCUUCUGCUGAGAGAUUAACA,0.0116 ± 0.0041
7,UAGUGAGUCACCUACUCUGAGAGAUUUACA,0.164 ± 0.053
8,UAGUCUGUCACCUUCUCUGAGAGAUCUAACA,0.258 ± 0.054
9,UAGUGUGUCACCAUCUCUGAGAGAUUAUCA,0.128 ± 0.024
10,UAGUGUGUCAACUUCUCUGAGAGAUUAACA,0.15 ± 0.013
11,UAGUUUGUCACCUUCUCUGAGAGAUUAACA,0.211 ± 0.018
12,UAGUGAGUCUGGUUCUCUGAGAGAUUAACA,0.0256 ± 0.0044
13,UAGUGACAGACCUUCUCUCAGAGAUUUACA,0.0156 ± 0.0069
14,UAGUGACAGUGGAAGUCUGAGAGAUUAGCA,< 0.0001
15,UAGUGAGUCACCUUGUCUGUGAGAUUAACA,0.0407 ± 0.0053
16,UAGUGACAGUGCAUCUCUGUGAGAUUAACA,0.00379 ± 0.0027
17,UAGUCUGUCACCAUCUCUGAGAGAUUAAGA,0.0701 ± 0.013
18,UAGUGACAGACGUUCUCUGAGAGUUUAACA,0.015 ± 0.0052
19,UAGUGACAGUCGCUUCUCUGAGAGAUUAACA,0.132 ± 0.0089
20,UAGUGACAGACCUUCUGAGAGAGAUUAUGA,0.00433 ± 0.0039
21,UAGUGACACACCUUCUCUGAGAGGAUUAACA,0.116 ± 0.015
22,UAGUGACAGUGCUUCUCUGAGAGAUCUAACA,0.00572 ± 0.0023
23,UAGUCUGUCACCUUCUCUGAUGAGAUUAACA,0.0218 ± 0.0062

row,Sequence,pre-steady-state target cleavage rate
1,UAGUGACACACCUUCUCUCAGAGAUUUACA,0.0404 ± 0.0093
2,UAGUGAGUCACCUACUCUGUGAGAUUAACA,0.0395 ± 0.0049
3,UAGUGACAGUCUUCUCUGAGAGAUUAACA,0.0515 ± 0.0067
4,UAGUGAGUCACCUACUCUGACAGAUUAACA,0.0577 ± 0.0088
5,UAGUGUGUCACGUUCUCUGAGAGUUUAACA,0.0921 ± 0.014
6,UAGUGACAGUCCUUCUCUGAGAGAUUUAACA,0.131 ± 0.016
7,UAGUGUGUCUCCUUCUCUGACAGAUUAACA,0.0515 ± 0.0065
8,UAGUGACACACGAUCUCUGAGAGAUUAAGA,0.0104 ± 0.0022
9,UAGUCUGUCACCUUCUCGAGAGAUUAACA,0.0771 ± 0.02
10,UAGUGACAGUCCUUCUCUUAGAGAUUAACA,0.0319 ± 0.0075
11,UAGUGUGUCACGUUCUCUGAGAGAUUAACA,0.146 ± 0.013
12,UAGUGACACAGCUUCACUGAGAGAUUAACA,0.0599 ± 0.0099
13,UAGUGACACACCUUCUGUGAGAGAUUAAGA,0.029 ± 0.012
14,UAGUGACAGUGGAUCUCUGAGAGAUUAAACA,< 0.0001
15,UAGUGACAGACCUUCUCUGAGAUGAUUAACA,0.0496 ± 0.0089
16,UAGUGACAGUGCUUCUCUGAGAGAUUACCA,0.00433 ± 0.0025
17,UAGUCUGUCACACUUCUCUGAGAGAUUAACA,0.115 ± 0.0068
18,UAGUGACAGACCUUCGUCUGAGAGAUUAACA,0.0103 ± 0.0038
19,UAGUGUGUCACCUUCUCUCAGAGAUUUACA,0.0482 ± 0.013
20,UAGUGUGUACACCUUCUCUGAGAGAUUAACA,0.184 ± 0.015
21,UAGUGUGUCUGCUUCUCUGAGAGAUUAUGA,0.0048 ± 0.0034
22,UAGUGACAGACCUACUCUGAGAGUUUAACA,0.0104 ± 0.0054
23,UAGUGACUCACCUACUCUGAGAGAAUAACA,0.0139 ± 0.0047

row,Sequence,pre-steady-state target cleavage rate
1,UAGUGACUCACCUUCUCUGAGAGAUUAGCA,0.146 ± 0.027
2,UAGUGAGUCACCUUCUCUGAGACUUUAACA,0.0515 ± 0.017
3,UAGUGUGUCACCUUCUCAGACAGAUUAACA,0.0415 ± 0.0083
4,UAGUCUGUCACCUUCUCUCACAGAUUAACA,0.0179 ± 0.0052
5,UAGUGUGUCACCUUCUCAGUGAGAUUAACA,0.0273 ± 0.004
6,UAGUGAGUCACCUUCUCUGAGAGAUCUAACA,0.171 ± 0.035
7,UAGUGACAGUGCUUCUCUGUGAGAUUAACA,0.0129 ± 0.0023
8,UAGUGACAGUCCUUCUCUGACAGUUUAACA,< 0.0001
9,UAGUGAGUCACGUUCACUGAGAGAUUAACA,0.135 ± 0.0066
10,UAGUGUGUCACCUUCACUGAGACAUUAACA,0.0842 ± 0.018
11,UAGUGAGACACCUUGUCUGAGAGAUUAACA,0.0854 ± 0.012
12,UAGUGAGUCAGCUUCACUGAGAGAUUAACA,0.118 ± 0.0076
13,UAGUGUGUCACCUACUCUGAGAGAUUAUCA,0.239 ± 0.049
14,UAGUGAGUCACUCUUCUCUGAGAGAUUAACA,0.0962 ± 0.0097
15,UAGUGAGUCACCUUCACUCAGAGAUUAACA,0.0352 ± 0.0087
16,UAGUGACAGUCCUUCUCUGAGAGAUUACACA,0.0217 ± 0.0053
17,UAGUGACAGACCUUCUGUGAGAGAUUAAGA,0.0157 ± 0.0075
18,UAGUGACAGUGGUUCUCUGAGAGAUUAACU [g2:g18:cont:t1U],0.00537 ± 0.0016
19,UAGUGACAGUGCUUGCUCUGAGAGAUUAACA,0.0214 ± 0.0029
20,UAGUGACACACCAUCUCUGAGAGAUAAACA,0.0369 ± 0.011
21,UAGUGACAGACGUUCUGUGAGAGAUUAACA,0.0275 ± 0.0072
22,UAGUGAGUCACCUUCUGAGAGAGAUUAAGA,0.016 ± 0.0076
23,UAGUCUGUCACCAUCUCUCAGAGAUUAACA,0.0403 ± 0.0059
